From article PMC4336329 (PLoS ONE, 2015) come the findings set out here.

About 2,200 (0.71%) of roughly 310,000 compounds showed an effect of 50% or more. The effect is printed as a negative number. The list shows a part of the results.

For this assay, the target named is human ether-à-go-go-related gene (hERG) potassium channel (human, UniProt Q12809). Briefly: primary screen, population patch clamp on CHO cells stably expressing hERG.
Sequence of human ether-à-go-go-related gene (hERG) potassium channel (Q12809 whole entry, looked up): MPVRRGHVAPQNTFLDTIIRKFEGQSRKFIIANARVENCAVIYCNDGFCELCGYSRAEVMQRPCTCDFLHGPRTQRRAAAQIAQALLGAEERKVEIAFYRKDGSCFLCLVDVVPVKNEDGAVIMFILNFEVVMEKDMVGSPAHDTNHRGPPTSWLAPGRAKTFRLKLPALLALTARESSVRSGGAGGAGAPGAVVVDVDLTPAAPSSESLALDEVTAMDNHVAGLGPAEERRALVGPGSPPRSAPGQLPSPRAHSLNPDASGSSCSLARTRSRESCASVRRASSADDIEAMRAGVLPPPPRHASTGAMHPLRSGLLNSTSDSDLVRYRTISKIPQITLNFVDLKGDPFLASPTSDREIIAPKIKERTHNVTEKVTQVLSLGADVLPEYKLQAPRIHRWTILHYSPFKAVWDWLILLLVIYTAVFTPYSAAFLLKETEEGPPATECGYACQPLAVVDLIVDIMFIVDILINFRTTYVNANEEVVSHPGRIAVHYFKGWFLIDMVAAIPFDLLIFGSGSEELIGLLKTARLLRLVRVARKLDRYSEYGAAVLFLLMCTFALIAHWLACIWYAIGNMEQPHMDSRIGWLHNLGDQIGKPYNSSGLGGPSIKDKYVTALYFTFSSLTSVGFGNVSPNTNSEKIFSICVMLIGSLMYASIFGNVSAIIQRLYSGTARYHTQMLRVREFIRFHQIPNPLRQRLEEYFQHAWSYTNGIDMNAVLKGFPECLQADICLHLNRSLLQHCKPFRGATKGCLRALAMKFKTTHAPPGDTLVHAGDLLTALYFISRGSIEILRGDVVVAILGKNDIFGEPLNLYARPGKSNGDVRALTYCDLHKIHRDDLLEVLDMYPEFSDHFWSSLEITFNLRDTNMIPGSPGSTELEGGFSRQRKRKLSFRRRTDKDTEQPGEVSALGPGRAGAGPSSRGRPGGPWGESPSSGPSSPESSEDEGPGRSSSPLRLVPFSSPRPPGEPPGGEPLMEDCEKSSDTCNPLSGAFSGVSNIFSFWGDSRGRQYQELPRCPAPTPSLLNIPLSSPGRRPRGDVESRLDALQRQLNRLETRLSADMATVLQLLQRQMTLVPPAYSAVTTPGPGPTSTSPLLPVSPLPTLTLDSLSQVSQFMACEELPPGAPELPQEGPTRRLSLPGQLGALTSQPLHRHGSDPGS
Regarding `CC(C)OC(=O)c1c(N)n(CC2CCCO2)c2nc3ccccc3nc12` (stereo not shown), the “hERG current change (%, negative = inhibition) at 1uM” value is listed as -0.289%. The result for `Cc1ccc(OCCC(=O)OCC(=O)Nc2ccc3c(c2)OCO3)cc1` reads 12.2%. With `O=c1c(-c2ccccc2)c(O)c2cccc3c2n1CCC3`, the “hERG current change (%, negative = inhibition) at 1uM” value is on record as -2.8%.

`CS(=O)(=O)N(CC(=O)N1CCOCC1)c1cccc(Cl)c1Cl`: the “hERG current change (%, negative = inhibition) at 1uM” value came to 7.49%. Regarding `O=C(Nc1cccc(Cl)c1)N1CCN(C/C=C/c2ccccc2)CC1`, the “hERG current change (%, negative = inhibition) at 1uM” value is listed as -24.1%. In the case of `CCOC(=O)c1c(C)n(CCN2CCN(C)CC2)c2ccc(OC)cc12.Cl`, the “hERG current change (%, negative = inhibition) at 1uM” value is given as 3.01%.

Take `O=C(NCC(=O)N(c1cccnc1)C(C(=O)NC1CCCC1)c1ccc(F)cc1)c1ccco1` (stereo not shown): the “hERG current change (%, negative = inhibition) at 1uM” value worked out at 20%. The result for `COC(=O)CSc1nnc(-c2ccccc2OC)n1-c1ccc(C)cc1` reads 11.7%; that for `O=C(COc1ccc2c(-c3ccccc3)cc(=O)oc2c1)NCCCn1ccnc1`, -22.9%; that for `O=C(CSc1ccccc1)NCc1ccccc1`, 12%. Next, `CCN(CC(=O)Nc1ccc(NC(C)=O)cc1)C(=O)C1COc2ccccc2O1` (stereo not shown): 5.67%; `O=C(CN1C(=O)c2cccc3cccc1c23)NCc1ccncc1`: 1.01%.

`CC(C)C(C(=O)NCC1CCCO1)N(Cc1cccs1)C(=O)CNS(=O)(=O)c1ccccc1` (stereo not shown): the “hERG current change (%, negative = inhibition) at 1uM” value is 16.1%. The result for `CC(C)n1cnnc1SCC(=O)NNC(=O)COc1ccc(Cl)cc1` reads 26.1%; that for `COc1ccccc1NC1CCCCC1NS(=O)(=O)c1ccccc1` (stereo not shown), 8.44%; that for `COc1ccccc1OCc1ccc(C(=O)Nc2ccncc2)o1`, -17.4%. Next, `O=C(COc1ccccc1)N1CCN(C(=O)c2cccc(F)c2)CC1`: 9.58%; `Cc1cc(C(C)(C)C)oc1C(=O)OCC(=O)NC1CCCCC1`: -0.118%.

Take `CCCCOC(=O)c1ccc(NC(=O)COC(=O)CN2C(=O)NC3(CCCC3)C2=O)cc1`: the “hERG current change (%, negative = inhibition) at 1uM” value was 8.41%. Next, `CCNC(=O)COC(=O)c1[nH]c(C)c(C(=O)OC)c1C`: 13%. The result for `CC(=O)Nc1ccc(S(=O)(=O)Nc2ccc(-n3cnnn3)cc2)cc1` reads 12.1%. Next, `Cc1c(C#N)c(N)nc2c3c(sc12)NC(=O)CC3c1ccccc1` (stereo not shown): 14.2%; `O=[N+]([O-])c1ccc(N2CCNCC2)cc1NC1CC1`: -4.7%; `CCC(c1nnnn1C(C)(C)CC)N(CCCO)Cc1cc2cccc(C)c2[nH]c1=O` (stereo not shown): -2.36%.

Consider `Cc1ccc2c(c1)cc(CN(CCc1ccccc1)C(=O)N1CCOCC1)c1nnnn12`, for which the “hERG current change (%, negative = inhibition) at 1uM” value is -13.7%.
